Test results published in the supplement of paper PMC12217912.
Some of the results follow. Sequences were assembled here from the parent chain. Inactive controls read about 0.05.

B1: TEV protease; numbered along this chain (parent)
chain: MGESLFKGPRDYNPISSSICHLTNESDGHTTSLYGIGFGPFIITNKHLFRRNNGTLVVQSLHGVFKVKDTTTLQQHLVDGRDMIIIRMPKDFPPFPQKLKFREPQREERICLVTTNFQTKSMSSMVSDTSCTFPSGDGIFWKHWIQTKDGQCGSPLVSTRDGFIVGIHSASNFTNTNNYFTSVPKNFMELLTNQEAQQWVSGWRLNADSVLWGGHKVFMVKPEEPFQPVKEATQL

Variants of: B1
Test: raw area under fraction-flipped curve 0-4 h after induction (AUC4h, not background-subtracted), DNA-recorder readout of cleavage of the substrate (dimensionless); higher = more cleavage of the substrate by the protease variant
Settings: temperature: 34 °C; time window: 0-4 h after rhamnose induction
Protocol: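 In vivo DNA recorder in E. coli TOP10(DE3) ΔrhaA at 34 °C. Each TEVp single-site mutant (parent TEVp 0) is paired with a single-site variant of the 7-mer TEVs (canonical ENLYFQ|S). The substrate sits between flexible linkers in a Bxb1-sfGFP-TEVs-SsrA fusion, so cleavage stabilises Bxb1 and speeds flipping of a recombination array, read by NGS. The value is the raw area under the fraction-flipped curve over 0-4 h after rhamnose induction (AUC4h), with ≥20 reads per time point. It is not background-subtracted; inactive controls average about 0.047.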
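Further: Bxb1 expression induced with 0.2% (w/v) L-rhamnose at OD600 near 0.5, cultures sampled hourly, flipped fraction per protease–substrate barcode pair counted by paired-end Illumina sequencing.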

Variant | area with substrate ENLYFQA | area with substrate ENLYFQC | area with substrate ENLYFQD | area with substrate ENLYFQE | area with substrate ENLYFQF | area with substrate ENLYFQG | area with substrate ENLYFQH | area with substrate ENLYFQI | area with substrate ENLYFQK | area with substrate ENLYFQL | area with substrate ENLYFQM | area with substrate ENLYFQN | area with substrate ENLYFQP | area with substrate ENLYFQR | area with substrate ENLYFQS | area with substrate ENLYFQT | area with substrate ENLYFQV | area with substrate ENLYFQW | area with substrate ENLYFQY | area with substrate ENLYFQQ
N24G | 0.0733 | 0.0665 | 0.0604 | 0.0551 | 0.052 | 0.0639 | 0.0669 | 0.0761 | 0.0634 | 0.0537 | 0.068 | 0.0324 | 0.0577 | 0.0601 | 0.0675 | 0.0592 | 0.0691 | 0.0629 | 0.064 | –
N24P | 0.0539 | 0.0616 | 0.0562 | – | 0.0569 | 0.0453 | – | 0.0454 | 0.0504 | 0.0588 | – | 0.0585 | – | 0.0567 | 0.059 | 0.0546 | 0.0621 | 0.0546 | 0.0573 | 0.065
N24S | 0.072 | 0.0697 | – | – | 0.0875 | 0.0549 | 0.067 | 0.0589 | – | 0.06 | 0.0806 | 0.0679 | – | 0.0665 | 0.0766 | 0.0636 | 0.0513 | 0.0725 | – | –
N24V | 0.0711 | 0.0615 | 0.0647 | 0.0524 | 0.0802 | 0.0676 | 0.0641 | 0.0629 | 0.0725 | 0.0529 | 0.0771 | 0.0735 | – | 0.0524 | 0.0819 | – | 0.0281 | 0.0604 | 0.0638 | –
E25I | 0.114 | 0.117 | – | 0.0543 | 0.0561 | 0.12 | 0.149 | 0.0696 | – | 0.0631 | 0.0716 | – | 0.0592 | 0.0633 | 0.0984 | 0.0655 | 0.061 | 0.0718 | 0.0648 | –
S32C | 0.0636 | 0.064 | 0.0788 | – | – | 0.109 | – | – | 0.0848 | 0.0639 | 0.0914 | – | 0.059 | 0.068 | 0.106 | 0.0711 | 0.0557 | 0.0684 | 0.0764 | –
S32F | 0.105 | 0.0901 | 0.0674 | – | 0.036 | 0.0997 | 0.0787 | 0.0565 | 0.0514 | 0.0588 | – | 0.071 | – | 0.0568 | 0.0938 | 0.0617 | – | 0.0573 | 0.087 | –
S32T | 0.103 | 0.107 | 0.0822 | 0.0514 | 0.0725 | 0.092 | 0.0984 | 0.0604 | 0.118 | 0.054 | 0.0677 | 0.0771 | 0.0331 | 0.0536 | 0.101 | 0.0941 | 0.0721 | 0.0624 | – | –
S32V | 0.0831 | 0.119 | – | – | – | 0.0881 | 0.0699 | 0.0625 | 0.0635 | 0.0586 | 0.0768 | 0.0984 | – | 0.0545 | 0.0929 | 0.0689 | 0.0543 | 0.0527 | 0.0708 | –
L33K | 0.0505 | – | 0.0552 | 0.0544 | 0.0531 | – | – | – | – | 0.0481 | – | – | 0.0626 | 0.0587 | 0.0589 | – | 0.0547 | – | 0.062 | 0.0514
L33S | 0.0927 | 0.111 | 0.0686 | – | – | 0.0814 | – | 0.0686 | 0.0649 | 0.0471 | 0.0534 | 0.0493 | 0.0648 | 0.0566 | 0.0931 | 0.0843 | 0.0551 | 0.0562 | 0.064 | –
Y34L | 0.0882 | 0.113 | 0.067 | 0.0641 | – | 0.0977 | – | 0.0664 | 0.0624 | 0.0537 | – | 0.0669 | – | 0.0707 | 0.101 | 0.0604 | 0.0993 | 0.0516 | 0.0621 | –
I36P | 0.0496 | 0.0372 | – | – | 0.0207 | 0.0445 | 0.0446 | 0.0189 | 0.0386 | 0.0423 | 0.0568 | 0.0239 | 0.0451 | – | 0.0411 | 0.0389 | 0.0344 | 0.0426 | 0.0389 | –
P40M | 0.114 | 0.113 | 0.0663 | – | – | 0.0945 | – | 0.055 | 0.0743 | 0.0508 | 0.107 | 0.0804 | – | 0.0564 | 0.106 | 0.0681 | 0.0545 | – | 0.106 | –
P40W | 0.0906 | 0.115 | – | – | – | 0.0911 | 0.0773 | – | 0.0571 | – | 0.0839 | 0.0869 | 0.0426 | 0.0494 | 0.104 | 0.0517 | – | 0.0563 | – | –
F41D | 0.085 | 0.0791 | – | – | – | 0.0665 | – | 0.0452 | 0.0646 | – | 0.0616 | 0.0544 | – | 0.0505 | 0.0802 | – | 0.0484 | 0.0669 | – | 0.0496
I42S | 0.0578 | 0.0488 | 0.0586 | – | 0.051 | 0.0574 | 0.0529 | 0.0435 | 0.041 | 0.0463 | 0.0358 | 0.0391 | 0.0405 | 0.0467 | 0.0479 | 0.0509 | 0.0529 | 0.0426 | 0.0589 | 0.0444
T44R | 0.0501 | 0.0452 | 0.0516 | – | – | 0.0737 | – | 0.0477 | 0.0451 | 0.0467 | 0.0429 | 0.0411 | 0.0443 | 0.0417 | 0.0471 | 0.0446 | 0.0472 | 0.0571 | 0.0383 | 0.0232
N45W | 0.0563 | 0.058 | 0.0661 | 0.0341 | 0.0327 | 0.0723 | 0.057 | 0.0496 | 0.0508 | 0.0624 | – | 0.0567 | 0.055 | 0.043 | 0.0587 | 0.0529 | 0.0536 | 0.0549 | 0.0852 | –
N45Y | 0.0614 | 0.0574 | 0.0676 | 0.0477 | 0.0567 | 0.0495 | 0.0744 | 0.0552 | 0.0501 | 0.0558 | 0.0638 | 0.0526 | 0.0596 | 0.0574 | 0.0591 | 0.0538 | – | 0.0619 | 0.052 | –
K46N | 0.0725 | – | 0.05 | – | 0.0475 | 0.0675 | – | 0.0414 | 0.0612 | – | 0.0554 | – | – | 0.0599 | 0.0626 | – | – | – | 0.0573 | –
H47G | 0.0542 | 0.0605 | 0.0551 | 0.0554 | 0.0601 | 0.0598 | 0.0558 | 0.0561 | 0.0605 | 0.0552 | 0.0768 | 0.0546 | 0.0575 | 0.0648 | 0.0586 | 0.0598 | 0.058 | 0.0486 | 0.0558 | 0.0552
